Measurements taken from PubChem BioAssay AID504832 (National Center for Advancing Translational Sciences (NCATS), 2011).
Out of some 310,000 compounds screened, about 18,000 (5.8%) were called active. Inconclusive results, whose numbers are uncertain, are shown with a selection of clear calls. The call rests on the fitted dose curve; in most records, active means well fitted inhibition curve with a large enough effect; inconclusive means small, poorly fitted or top-dose-only effect, or another doubt; inactive means no such curve, though single readings can be large or run the other way. Potencies of inconclusive entries are left out as doubtful fits.
Potency means the concentration at half of the fitted maximal effect; tags describe the fitted curve by direction and shape.

Assay: Primary qHTS for delayed death inhibitors of the malarial parasite plastid, 48 hour incubation
Conditions: P. falciparum luciferase growth in erythrocytes; series mostly up to 28.7 µM
How it was run: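 Luminescence readout; reporter = integrated firefly luciferase in P. falciparum. RBC culture at 2% hematocrit, 0.1% parasitemia final, 37 C/5% CO2; decreased signal taken as growth inhibition.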
For CSCC[C@H](NC(=O)[C@@H]1Cc2ccccc2CN1)C(=O)Nc1ccc2c(c1)OCO2, the Potency was active: 9.28 µM.
With O=C(NCc1ccc(Cl)cc1)C1CCN(S(=O)(=O)c2cc([N+](=O)[O-])ccc2Cl)CC1 the Potency was inconclusive [inhibitor, partial curve, poor fit].
For CC(C)Cn1c(=O)[nH]c2ccccc21, the Potency was “inactive”.
In the case of Brc1ccc2c(c1)OCCOCCOc1cc(Br)ccc1OCCOCCOCCO2, the Potency is reported as inconclusive [inhibitor, single point].
In the case of COc1ccc(C2CC(=O)Oc3c(C(CCN4CCOCC4)c4cc(OC)c(OC)c(OC)c4)c(OC)cc(OC)c32)cc1 (configuration not stated), the Potency is reported as active: 9.28 µM.
For O=C(N/N=C/c1ccc(-c2ccc([N+](=O)[O-])cc2)o1)[C@H]1C[C@@H]1c1ccccc1, the Potency was “inactive”.
With CCOC(=O)CCNC(=O)N1CCCC(C(=O)c2cc(C)c(OC)c(C)c2)C1 (configuration not stated) the Potency was “inactive”.
For CCn1cc(C(=O)NCc2ccco2)c(=O)c2cc(S(=O)(=O)N3CCc4ccccc4C3)ccc21, the Potency was active: 9.28 µM.
With CCOc1ccc(S(=O)(=O)N2CCN(C(=O)c3ccccc3Cc3ccccc3)CC2)cc1 the Potency was inconclusive [inhibitor, single point].
In the case of CCOc1ccccc1-c1cc(C(=O)N2CCOCC2)c2ccccc2n1, the Potency is reported as inconclusive [inhibitor, partial curve].
For Cc1cc(C(=O)NC2=NCCS2)c2ccccc2n1, the Potency was “inactive”.
For O=CN1CCCN(C(=O)CC2C(=O)NCCN2Cc2cccc(Oc3ccccc3)c2)CC1 (configuration not stated), the Potency was “inactive”.
In the case of CCCCSc1nc2sc3c(c2c(=O)n1-c1ccc(OC)cc1)CCN(C)C3, the Potency is reported as active: 9.28 µM.
For O=C(Cn1nc(C(=O)O)c2ccccc2c1=O)Nc1cccc(Br)c1, the Potency was “inactive”.
In the case of O=C(Cn1c(=O)n(-c2ccc(F)cc2)c(=O)c2sccc21)c1ccccc1, the Potency is reported as inconclusive [inhibitor, partial curve, poor fit].
For Cc1cc(C2=NNC(=NC3CC3)SC2)c(C)n1-c1ccccc1, the Potency was inconclusive [inhibitor, partial curve, poor fit].
In the case of N#Cc1ccc(/C=N/NC(=O)c2cc(-c3cccs3)nc3ccccc23)cc1, the Potency is reported as inconclusive [inhibitor, single point].
For Cc1sc(NC(=O)/C=C/c2ccco2)c(C(=O)O)c1C, the Potency was inconclusive [inhibitor, single point].
For O=c1[nH]c(C2CCCN(S(=O)(=O)c3ccccc3)C2)nc2c1nnn2Cc1ccccc1 (configuration not stated), the Potency was active: 10.4 µM.
With Cc1cccc2c(N=O)c(O)n(CCc3ccccc3)c12 the Potency was inconclusive [inhibitor, single point].
With O=c1[nH]cnc2cc(-c3ccccc3)sc12 the Potency was “inactive”.
In the case of CC(C)[C@H](NC(=O)c1ccco1)C(=O)OCC(=O)NC12CC3CC(CC(C3)C1)C2, the Potency is reported as “inactive”.
For COc1cc(NC(=O)CCCl)cc(-n2cnnn2)c1, the Potency was “inactive”.
In the case of Cc1ccc(S(=O)(=O)N(C)C)cc1NC(=S)NC(=O)C12CC3CC(CC(C3)C1)C2, the Potency is reported as inconclusive [inhibitor, single point].
For O=[N+]([O-])c1ccc(N2CCCC2)cc1N1CCCC1, the Potency was “inactive”.
With O=C(CSc1ncn[nH]1)N1CCN(c2nnc(-c3ccccc3)c3ccccc23)CC1 the Potency was inconclusive [inhibitor, partial curve].
With CC1CCCN(C(=O)CSc2nnc(-c3cccnc3)n2C2CCCCC2)C1 (configuration not stated) the Potency was inconclusive [inhibitor, partial curve, poor fit].
With Cc1cccc(Nc2ccc3nonc3c2[N+](=O)[O-])c1C the Potency was “inactive”.
With COCC(=O)Nc1c(C(=O)N2CCCC2)oc2ccccc12 the Potency was “inactive”.
In the case of O=C(c1ccco1)N1CCN(C(=O)c2cnn3c2NC(c2cccs2)CC3C(F)(F)F)CC1 (configuration not stated), the Potency is reported as inconclusive [inhibitor, partial curve].
For Cc1ccc2nc(/C(C#N)=C/c3ccc(-c4cccc([N+](=O)[O-])c4)o3)[nH]c2c1, the Potency was inconclusive [inhibitor, single point].
In the case of CC(C)N(Cc1nccn1C)C(=O)c1ccc2oc(Cc3ccccc3)nc2c1, the Potency is reported as inconclusive [inhibitor, partial curve, poor fit].
With Cc1ccc(Nc2c(-c3ccccc3O)nc3cnccn23)cc1 the Potency was active: 5.86 µM.
In the case of CCOc1ccc(NC(=O)C(C)NC(=O)c2ccccc2Cl)cc1S(=O)(=O)N1CCCC1 (configuration not stated), the Potency is reported as inconclusive [inhibitor, single point].
For O=C(O)c1cccc(CSc2n[nH]c(-c3ccc(Cl)cc3Cl)n2)c1, the Potency was “inactive”.
For CCOc1cc(N2CCOCC2)c(OCC)cc1NC(=O)CN1C(=O)C2CC=CCC2C1=O (configuration not stated), the Potency was inconclusive [inhibitor, partial curve, poor fit].
In the case of COc1ccc([C@H]2CC(=O)C=C(c3cccc(C(C)C)c3)C2)cc1OC, the Potency is reported as inconclusive [inhibitor, partial curve, poor fit].
For C=CCn1c(C)cc(-c2csc(NCC)n2)c1C, the Potency was inconclusive [inhibitor, partial curve, poor fit].
In the case of Cc1cc(C)cc(NC(=O)c2cc3c(=O)n4ccccc4nc3s2)c1, the Potency is reported as “inactive”.
In the case of CSCCC(=O)N(C)CC1CCCN(CCc2cccc(C(F)(F)F)c2)C1 (configuration not stated), the Potency is reported as “inactive”.
With COCCn1nnnc1C(c1cc(OC)ccc1OC)N1CCc2ccccc2C1 (configuration not stated) the Potency was inconclusive [inhibitor, partial curve].
In the case of O=C(Cn1cc(C(=O)C(F)(F)F)c2ccccc21)Nc1ccccc1F, the Potency is reported as inconclusive [inhibitor, single point].
In the case of O=C(Nc1cc(Cl)ccc1Oc1ccccc1)c1ccccc1F, the Potency is reported as inconclusive [inhibitor, single point].
With CS(=O)(=O)c1ccc(Cl)c(NC(=O)CCCSc2ccccc2)c1 the Potency was “inactive”.
With N#Cc1ccccc1OCC(=O)NCC1(N2CCCCC2)CCCCC1 the Potency was active: 3.29 µM.
In the case of c1ccc(-c2nnc(NC3=NCCC3)o2)cc1, the Potency is reported as “inactive”.
With CN(Cc1cn(Cc2ccccc2)nc1-c1ccc2c(c1)OCO2)Cc1nccn1C the Potency was inconclusive [inhibitor, single point].
